{"source": "PubChem BioAssay AID485294", "about": "(National Center for Advancing Translational Sciences (NCATS), 2010)", "note": "Hit rate of the full screen: of about 370,000 compounds, about 150 (0.041%) were called active. The inconclusive results got no clear call from the source; some entries with a clear call stand among them for comparison. The call rests on the fitted dose curve; in most records, active means well fitted inhibition curve with a large enough effect; inconclusive means small, poorly fitted or top-dose-only effect; inactive means flat fitted curve, though single readings scatter. No potency is given beside an inconclusive call; the fits are too rough. Potency means the concentration at half of the fitted maximal effect; tags describe the fitted curve by direction and shape."}
{"molecular_target": "Beta-lactamase (Escherichia coli (strain K12)) (UniProt P00811)", "sequence (P00811 whole entry, looked up)": "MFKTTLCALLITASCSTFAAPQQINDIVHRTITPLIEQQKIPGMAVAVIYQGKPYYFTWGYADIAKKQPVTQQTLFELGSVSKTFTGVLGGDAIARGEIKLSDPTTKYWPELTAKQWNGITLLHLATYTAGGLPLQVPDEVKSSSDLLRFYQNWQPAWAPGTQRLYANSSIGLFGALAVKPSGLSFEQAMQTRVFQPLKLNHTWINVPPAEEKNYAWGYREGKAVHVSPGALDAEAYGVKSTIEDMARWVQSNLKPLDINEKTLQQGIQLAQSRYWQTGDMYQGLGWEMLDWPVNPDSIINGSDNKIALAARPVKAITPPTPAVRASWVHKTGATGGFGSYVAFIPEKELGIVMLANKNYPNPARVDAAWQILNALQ", "assay": "qHTS Inhibitors of AmpC Beta-Lactamase (assay with detergent); further: nearly all actives have a fitted effect of over 25% in size;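 on activity change, negative = inhibition: 0% = no-compound wells and -100% = no-enzyme wells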", "settings": "AmpC hydrolysis of nitrocefin, absorbance 480 nm, 0.01% Triton; activity change, negative = inhibition: at 114 µM (top of the series)", "method_in_brief": "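AmpC (5.3 nM in the dispensed reagent) in 20 mM phosphate pH 7.0 with 0.01% (detergent screen) or 0.0001% Triton X-100 was preincubated with compounds for 15 min at room temperature. Nitrocefin was then added from an 800 uM solution, and hydrolysis was followed at 480 nm.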"}
{"compound": "CC1CCN(c2ccc(NC(=O)Cc3ccccc3)cc2)CC1", "activity change, negative = inhibition": "inactive: 3.38%"}
{"compound": "CC[n+]1c(C)sc2c3ccsc3ccc21", "Potency": "inconclusive [inhibitor, single point]"}
{"compound": "O=C(COCc1nc2ccccc2c(=O)[nH]1)NC1CCCC1", "Potency": "inconclusive [inhibitor, full curve]"}
{"compound": "Cn1c(=O)cc(OCC(=O)N2CCN(C3CCCCC3)CC2)c2ccccc21", "Potency": "inconclusive [inhibitor, full curve, poor fit]"}
{"compound": "CCOC(=O)c1sc(-c2ccccn2)nc1C", "Potency": "inconclusive [inhibitor, partial curve, poor fit]"}
{"compound": "COc1ccc(-c2csc3nc(C)n(-n4cccc4)c(=O)c23)cc1", "Potency": "inconclusive [inhibitor, full curve, poor fit]"}
{"compound": "O=C(N/N=C/c1cccc(O)c1)c1cc(-c2ccccc2)nc2ccccc12", "activity change, negative = inhibition": "inactive: -1.45%"}
{"compound": "COc1ccc(S(=O)(=O)c2c(C(=O)c3ccc(C)c(C)c3)cnc3ccc(C)cc23)cc1", "activity change, negative = inhibition": "inactive: 0.639%"}
{"compound": "CC(C)C(=O)NC(=S)Nc1ccc(S(=O)(=O)N2CCN(C)CC2)cc1", "Potency": "inconclusive [inhibitor, full curve]"}
{"compound": "Cc1cccc(NC(=O)CCc2ccc(C)o2)c1", "activity change, negative = inhibition": "inactive: 0.406%"}
{"compound": "O=C(NCCS(=O)(=O)NCCCc1ccccc1)c1ccccc1", "activity change, negative = inhibition": "inactive: -12.9%"}
{"compound": "CCOc1cc2c(cc1OCC)C(c1ccccc1)N(c1ccccc1)C(=O)C2", "note": "(stereo not given)", "Potency": "inconclusive [inhibitor, full curve, poor fit]"}
{"compound": "N#Cc1cc2c(nc1SCc1cccnc1)CCCC2", "Potency": "inconclusive [inhibitor, partial curve, poor fit]"}
{"compound": "CCN(CC(O)CON=C1c2ccccc2-c2ccccc21)S(=O)(=O)c1ccc(Cl)cc1", "note": "(stereo not given)", "Potency": "inconclusive [inhibitor, partial curve, poor fit]"}
{"compound": "Cc1nc2ccccc2c2oc(C(=O)NC3CC3)cc12", "activity change, negative = inhibition": "inactive: -11%"}
{"compound": "COc1ccc(CCNC(=O)C2(c3ccccc3)CC2)cc1", "activity change, negative = inhibition": "inactive: 0.533%"}
{"compound": "COc1ccc(S(=O)(=O)N2CCOCC2)cc1NC(=O)c1ccc(Cl)cc1", "Potency": "inconclusive [inhibitor, full curve, poor fit]"}
{"compound": "Cc1ccc(C)c(S(=O)(=O)NCc2ccc(C(=O)NCc3ccccn3)cc2)c1", "Potency": "inconclusive [inhibitor, full curve]"}
{"compound": "O=C(Cc1ccccc1F)N1CCN(S(=O)(=O)c2ccc(Cl)cc2)CC1", "activity change, negative = inhibition": "inconclusive: -16% [inhibitor]"}
{"compound": "COc1cc(NC(=O)c2cnc(NCc3ccccc3)nc2C)cc(OC)c1OC", "Potency": "inconclusive [inhibitor, full curve, poor fit]"}
{"compound": "CC(Oc1ccccc1)C(=O)Nc1cccc(-c2cn3cccnc3n2)c1", "note": "(stereo not given)", "activity change, negative = inhibition": "inactive: -0.944%"}
{"compound": "CCCOc1cccc(C2/C(=C(/O)c3ccc(OC)cc3)C(=O)C(=O)N2CCN(C)C)c1", "note": "(stereo not given)", "Potency": "inconclusive [inhibitor, full curve, poor fit]"}
{"compound": "O=C(Nc1ccccc1O)c1cc(S(=O)(=O)N2CCOCC2)ccc1Cl", "Potency": "inconclusive [inhibitor, full curve, poor fit]"}
{"compound": "CC1(C)OC(=O)C(=CNn2cnc3ccccc3c2=O)C(=O)O1", "activity change, negative = inhibition": "inactive: -3.65%"}
{"compound": "O=C(Cc1c[nH]c2ccccc12)Nc1nccs1", "Potency": "inconclusive [inhibitor, full curve, poor fit]"}
{"compound": "Cc1cccc(NC(=O)CSc2nc3nc4c(cc3c(=O)n2-c2ccccc2)CCCC4)c1", "Potency": "inconclusive [inhibitor, full curve]"}
{"compound": "Cc1cnc(C(=O)OCC(=O)c2cccc3ccccc23)cn1", "Potency": "inconclusive [inhibitor, full curve, poor fit]"}
{"compound": "CCC[C@@H](CN[C@@H](CNC)C(C)C)NCCCCc1ccccc1", "activity change, negative = inhibition": "inactive: -12.9%"}
{"compound": "CC1(C)Oc2ccc3ccc(=O)oc3c2C(N2CCCCC2)C1O", "note": "(stereo not given)", "Potency": "inconclusive [inhibitor, single point]"}
{"compound": "Cc1cc2c(cc1S(=O)(=O)C(C)CC(=O)NC1CCC(C)CC1)OCC(=O)N2", "note": "(stereo not given)", "activity change, negative = inhibition": "inactive: 2.17%"}
{"compound": "C[C@@H](C(=O)NC1CCCC1)N1C(=O)N2CCc3c([nH]c4ccccc34)[C@@]2(C)C1=O", "Potency": "inconclusive [inhibitor, partial curve]"}
{"compound": "CC(Oc1ccc(F)cc1)C(=O)Nc1ccccc1C(=O)NC1CC1", "note": "(stereo not given)", "Potency": "inconclusive [inhibitor, partial curve]"}
{"compound": "Cc1cc(C)c2oc(C(=O)Nc3ccc(S(=O)(=O)Nc4ncccn4)cc3)cc(=O)c2c1", "activity change, negative = inhibition": "inactive: 14.3%"}
{"compound": "COc1ccc2c(c1OC)C(=O)N1c3ccccc3C(=O)N(c3ccc(F)cc3)C21", "note": "(stereo not given)", "Potency": "inconclusive [inhibitor, partial curve]"}
{"compound": "N#CC1=C(N)C(C#N)(C#N)[C@H](c2c(F)cccc2F)[C@H]2CC3(CC=C12)OCCO3", "Potency": "inconclusive [inhibitor, single point]"}
{"compound": "Cc1onc(-c2ccccc2)c1C(=O)Nc1ccc2c(c1)OCO2", "Potency": "inconclusive [inhibitor, full curve, poor fit]"}
{"compound": "CCN1CCN(Cc2cc(=O)oc3ccc(Cl)cc23)CC1", "Potency": "inconclusive [inhibitor, partial curve]"}
{"compound": "CCOC(=O)C(C)Oc1cccc2c(=O)n(CC(=O)N3CCc4ccccc43)ccc12", "note": "(stereo not given)", "Potency": "inconclusive [inhibitor, full curve, poor fit]"}
{"compound": "Cc1ccn2c(C=O)c(-c3ccc(F)cc3)c(C=O)c2c1", "activity change, negative = inhibition": "inactive: 1.12%"}
{"compound": "Cc1ccnc(NS(=O)(=O)c2ccc(NC(=O)Cc3cccs3)cc2)n1", "Potency": "inconclusive [inhibitor, full curve, poor fit]"}
{"compound": "O=Nc1onc(-c2ccc([N+](=O)[O-])cc2)c1NO", "activity change, negative = inhibition": "inactive: 7.09%"}
{"compound": "C/C(=N\\Nc1nc(C)c(C)s1)c1ccc([N+](=O)[O-])cc1", "Potency": "inconclusive [inhibitor, full curve]"}
{"compound": "O=C(NCc1ccccc1)c1cnc2sc(N3CCCC3)nn2c1=O", "activity change, negative = inhibition": "inactive: 2.16%"}
{"compound": "CCN(CC)C(=O)c1sc2c(c1C)c(=O)n(Cc1ccccc1)c(=O)n2Cc1cc(C)ccc1C", "activity change, negative = inhibition": "inactive: 9.81%"}
{"compound": "C=CCn1c(O)c(N=Nc2nc3ccccc3c(=O)n2-c2ccccc2)c2ccccc21", "Potency": "inconclusive [inhibitor, full curve, poor fit]"}
{"compound": "CC(C)(C)OC(=O)NCCCCCNC(=O)c1[nH]cnc1C(=O)Nc1cccc(Cl)c1", "activity change, negative = inhibition": "inactive: 1.72%"}
{"compound": "N/C(=N\\OC(=O)c1ccccc1Cl)c1ccc(Cl)cc1", "Potency": "inconclusive [inhibitor, full curve]"}
{"compound": "O=C(c1cccs1)N(Cc1cc2ccccc2[nH]c1=O)CC1CCCO1", "note": "(stereo not given)", "Potency": "inconclusive [inhibitor, full curve, poor fit]"}
{"compound": "CNC(=O)CSc1nnc(-c2ccc3c(c2)OCO3)n1C", "activity change, negative = inhibition": "inactive: 1.84%"}
{"compound": "Cc1cc(C)c(S(=O)(=O)NCCn2c(C)cc3ccccc32)c(C)c1", "Potency": "inconclusive [inhibitor, full curve, poor fit]"}
{"compound": "Cc1ccc(OC(=O)COc2ccccc2C)c(-n2nc3ccccc3n2)c1", "Potency": "inconclusive [inhibitor, full curve, poor fit]"}
{"compound": "Cc1ccc(-n2nnnc2SCC(=O)N2CCCCC2)cc1", "Potency": "inconclusive [inhibitor, full curve, poor fit]"}
{"compound": "CCC1(CC)NC(=O)N(CC(=O)OC(C)C(=O)Nc2ccc(Cl)cn2)C1=O", "note": "(stereo not given)", "Potency": "inconclusive [inhibitor, full curve, poor fit]"}
{"compound": "O=C(Nc1cccc(C(=O)OCc2cc(=O)n3c4c(sc3n2)CCCC4)c1)c1ccc(Cl)cc1", "activity change, negative = inhibition": "inactive: 15.3%"}
{"compound": "CCOC(=O)c1c(C)oc2ccc(O)c(CN3CCCCC3)c12", "activity change, negative = inhibition": "inactive: -16.5%"}
{"compound": "CCSc1cc(N2CCCC2)nc(-c2ccccc2Cl)n1", "Potency": "inconclusive [inhibitor, partial curve]"}
{"compound": "Cc1ccc(C)c(S(=O)(=O)N2CCN(C(=O)/C=C/c3ccco3)CC2)c1", "activity change, negative = inhibition": "inactive: -4.49%"}
{"compound": "CC(=O)N/C(=C/c1ccccc1)C(=O)NC(Cc1ccccc1)C(=O)O", "note": "(stereo not given)", "activity change, negative = inhibition": "inactive: 1.82%"}
{"compound": "O=C(Cn1cc(SCc2ccc(F)cc2)c2ccccc21)N1CCCCC1", "Potency": "inconclusive [inhibitor, single point]"}
{"compound": "O=c1n(Cc2ccccc2Cl)c2sc3c(c2c2ncnn12)CCCC3", "Potency": "inconclusive [inhibitor, single point]"}
{"compound": "COc1ccccc1C(=O)N/C(=C/c1ccccc1)C(=O)NC(CCSC)C(=O)O", "note": "(stereo not given)", "Potency": "inconclusive [inhibitor, full curve]"}
{"compound": "CCCC(=O)Nc1cccc(NC(=S)NC(=O)C(C)Oc2ccc(Cl)cc2Cl)c1", "note": "(stereo not given)", "Potency": "inconclusive [inhibitor, single point]"}
{"compound": "C=CC[n+]1c(-c2ccc(Cl)cc2Cl)csc1Nc1ccc(NC(C)=O)cc1", "activity change, negative = inhibition": "inactive: 1.63%"}
{"compound": "CCOc1ccc(C2CC(c3cccc(Cl)c3)n3nc(N)nc3N2)cc1", "note": "(stereo not given)", "Potency": "inconclusive [inhibitor, single point]"}
{"compound": "CNC(=O)c1c(NC(=O)c2ccc3ncsc3c2)sc(C)c1C", "activity change, negative = inhibition": "inactive: 3.32%"}
{"compound": "Cc1ccc(-c2noc(-c3cccnc3NCc3ccco3)n2)cc1", "activity change, negative = inhibition": "inactive: -1.5%"}
{"compound": "O=C(CCNC(=O)c1ccc(Cl)cc1)NN1C(=O)NC2(CCCCC2)C1=O", "Potency": "inconclusive [inhibitor, full curve, poor fit]"}
{"compound": "COc1cccc(CNCc2ccccn2)c1OC", "Potency": "inconclusive [inhibitor, full curve, poor fit]"}
{"compound": "COC(=O)C1=C(N)Oc2cc(C)n(C)c(=O)c2C1c1ccc(Cl)c(Cl)c1", "note": "(stereo not given)", "Potency": "inconclusive [inhibitor, full curve, poor fit]"}
{"compound": "Cc1ccc(OCCNC(=O)c2ccc3c(c2)OCO3)cc1", "activity change, negative = inhibition": "inactive: -3.76%"}
